From the BET-seq Pho4 binding data (Le et al. 2018)
This is one part of the list. The energies were worked out here from pooled read counts, against the library average; single values are noisy.

biological target: T1, Pho4 (S. cerevisiae) (UniProt P07270); experiment: relative binding free energy (BET-seq); higher = weaker binding; conditions: reference: library average
T1 sequence: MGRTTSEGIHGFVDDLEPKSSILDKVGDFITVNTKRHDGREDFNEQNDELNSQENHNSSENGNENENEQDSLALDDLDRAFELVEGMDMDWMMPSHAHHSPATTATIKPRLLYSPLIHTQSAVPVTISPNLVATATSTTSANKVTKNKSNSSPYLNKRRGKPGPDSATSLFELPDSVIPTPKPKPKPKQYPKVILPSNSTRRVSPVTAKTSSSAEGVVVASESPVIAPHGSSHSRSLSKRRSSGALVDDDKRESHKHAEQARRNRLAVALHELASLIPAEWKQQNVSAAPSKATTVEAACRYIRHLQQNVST

Sequence | relative binding free energy [kcal/mol]
TAGTTCACGTGGGTAC | 0.09
ATTACCACGTGGTAGG | -0.08
TGGATCACGTGAGATT | 0.5
GTTGTCACGTGTTAAA | 0.14
GGTTTCACGTGTGAAG | 0.27
TACATCACGTGGGATG | 0.03
GTTATCACGTGAGAGT | 0.35
TAACTCACGTGAAGTT | 0.52
GGTGGCACGTGAGGTT | 0.22
TAAAGCACGTGGGGGA | -0.24
TGTTTCACGTGTGACG | 0.35
TTATCCACGTGTAGTG | 0.08
TTTAACACGTGGTGCT | -0.12
TAGCTCACGTGTGGTT | 0.33
TGTATCACGTGGAATA | 0.19
ATATCCACGTGTGTGT | -0.19
GAAGTCACGTGGTTAG | 0.06
AGTCTCACGTGATGGG | 0.27
TCATTCACGTGGGTAT | 0.2
GTTGTCACGTGTGGTC | 0.27
GTTGTCACGTGGATAG | 0.31
TTTGTCACGTGGCTAG | -0.01
TAAGCCACGTGATGGG | 0.04

Sequence | relative binding free energy [kcal/mol]
AATTGCACGTGAGGTC | 0.22
CTGTGCACGTGTTTGC | -0.04
TATGACACGTGTGGAT | 0.21
GGAGACACGTGGGTAG | -0.07
TATGTCACGTGTTGGG | 0.17
CATAGCACGTGGGTTT | -0.13
ATAATCACGTGTTTAT | 0.12
TGTTTCACGTGGAGGG | 0.3
TGGTTCACGTGCATGC | 0.27
TTAGACACGTGAAGTT | 0.14
TCGTTCACGTGGGAAG | 0.13
GTCTACACGTGGTCGG | 0.11
GTGATCACGTGGGTAA | -0.04
AGGGTCACGTGAGTTC | 0.44
GTTTCCACGTGCGGGT | 0.07
TAGAACACGTGGTGAT | 0.02
GCCTTCACGTGGAGGT | 0.33
CGGGTCACGTGGTAGA | 0.23
TTTTTCACGTGATGAT | 0.36
GGAAACACGTGGTTTA | 0.06
GGGGCCACGTGTGGTA | -0.05
TTTAGCACGTGCGTGC | -0.12
TTTAACACGTGGTGCG | -0.12

Sequence | relative binding free energy [kcal/mol]
TCATGCACGTGTTCGT | -0.06
ACTGGCACGTGTTGGC | -0.06
TCGCTCACGTGGTTTG | 0.19
ATTTTCACGTGCGTGA | 0.29
GCGTGCACGTGGAAGG | 0
CGGGGCACGTGGCTTG | -0.27
TTTTTCACGTGTGCTC | 0.37
ATGTTCACGTGGGCTA | 0.11
GGGCTCACGTGGCGGG | 0.29
GATGACACGTGGTGTC | 0.01
TGAGGCACGTGAGGTC | 0.11
TATTACACGTGGAATG | 0.09
AGAGTCACGTGTTAGT | 0.14
TGGGGCACGTGTTTTT | -0.01
GCTAACACGTGGGTGG | -0.08
GTAGGCACGTGTAACG | -0.02
ACTGGCACGTGATATG | -0.08
TTGGGCACGTGGGTTT | -0.07
TTAATCACGTGGGCGA | -0.03
TAATACACGTGGGGTT | -0.12
AGAAGCACGTGTTGTG | -0.07
TAGCGCACGTGTGATG | -0.07
GGTTACACGTGTTCGT | 0.17

Sequence | relative binding free energy [kcal/mol]
CGGTTCACGTGGATGG | 0.44
TGAGACACGTGAGGCG | 0.26
AGAGTCACGTGCGGCG | 0.09
AGATGCACGTGGTTCT | 0.08
TAATACACGTGTGGAT | 0.1
GGCTGCACGTGGGAAG | -0.15
TTATCCACGTGTGTGG | -0.02
TAGGGCACGTGTGGCG | -0.06
TGTGACACGTGGGCGA | -0.18
ATGTGCACGTGGCGTT | -0.25
ATGTGCACGTGAAATT | 0.14
AGCAGCACGTGGGTTG | -0.37
TAGTTCACGTGAAGCT | 0.3
GTAATCACGTGGCGAT | 0.13
TTTGCCACGTGGATGT | -0.02
AAAGTCACGTGTATAT | 0.05
TCTAACACGTGTGTGT | -0.04
AATTGCACGTGTGGAA | 0.1
GTTTACACGTGTTTAG | 0.19
GGGGACACGTGTGAGC | 0.25
GGGAGCACGTGCTGGC | -0.04
TGTAACACGTGATATG | -0.04
TGCGGCACGTGGATAG | -0.19

Sequence | relative binding free energy [kcal/mol]
GATAGCACGTGATTGG | 0.16
AGTATCACGTGTTTCG | 0.27
TTGTTCACGTGCGGTA | 0.18
AGGGGCACGTGTGTGC | -0.15
TACTGCACGTGGGGGA | -0.11
TGCATCACGTGGTATG | 0.06
AAGACCACGTGTGGGT | -0.08
ATGTACACGTGGCAGT | 0.11
GAGCGCACGTGGGGCA | -0.17
GGGTGCACGTGGAATG | 0.08
GAACGCACGTGAGGGG | 0.18
AGGATCACGTGGTGGG | 0.17
GGGGCCACGTGGTGTG | -0.07
TTCATCACGTGAATTG | 0.35
ATGGACACGTGGTAGA | 0.15
CGATTCACGTGTGGCG | 0.2
GTTCTCACGTGTTGAT | 0.23
TTGAGCACGTGAGAGT | 0.12
GGTAGCACGTGTGTTG | -0.08
GTCAACACGTGGGGTG | 0.04
CTGTTCACGTGGGGCT | 0.04
ACGTGCACGTGGGGGC | -0.26
GATGGCACGTGGTAGC | -0.09
